Results reported in the supplement of paper PMC11417369.
± gives the standard deviation of the averaged measurements. The list shows a part of the results.

These sequences were tested on PfAP2-LT AP2 domain (GST-tagged) (assay: gcPBM binding intensity (ln(normalized median fluorescence intensity)); higher = stronger DNA binding).
How it was run: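 An Agilent 4 × 180k array carrying primer-extended double-stranded 36-bp intergenic genomic probes and negative controls received GST-tagged P. falciparum DNA-binding domains expressed in E. coli, about 25 μg on average, for 1 h. The binding buffer contained 1× PBS, 1% milk, 0.2 mg/ml BSA, 0.5% salmon testes DNA and 0.03% Triton X-100. Binding intensity is the top Masliner-normalised natural-log median intensity across replicate spots of either probe orientation, read after Alexa488 anti-GST antibody staining and a 488 nm scan.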

Row | Sequence | gcPBM binding intensity (ln)
1 | TATAAAAATATATTTACACACTATATATATCGAAAG [CACACA_site1700] | 8.72 ± 0.36
2 | ATGGTTTAGTTATATACACACTCGAAAATAACGACA [CACACA_site7520] | 8.82 ± 0.26
3 | ATATATTTTCAAAAAAGTAAATCAAAATAAATATAT [TGCATGCA_negctrl_site319] | 8.5 ± 0.37
4 | TCCAAATACAACTACACACAAACAAAAATTATATAT [CACACA_site881] | 9.3 ± 0.42
5 | TTTTTTTTAAGAGATAGTACATAAATATTATAATAT [XGTACX_site4685] | 8.25 ± 0.44
6 | AAAATTTTTCTTAAAGCATGCACAATTAAGAAGACG [TGCATGCA_site883] | 8.71 ± 0.35
7 | TTAAAATTAATTCACCAGTATTAAAATAAAAACGAA [CACACA_negctrl_site1428] | 8.61 ± 0.45
8 | AAATAAAATTTTATGTGTACGCAAAAAGTTGTAAGC [XGTACX_site8911] | 8.96 ± 0.45
9 | CATATATATATATATACACACATATATATTTTCTTT [CACACA_site1457] | 9.22 ± 0.28
10 | AAAAAAAAAAATATCACACACACATAAATATAAACA [CACACA_site7138] | 9.74 ± 0.28
11 | AAAGTAGGCTTATATGCACACTTTGAAATATTATAA [CACACA_site5117] | 8.76 ± 0.47
12 | CAATATTATATATATACACACATAATCTGTAAAAAC [CACACA_site1068] | 9.09 ± 0.45
13 | ATTATACAAAATGGTAAGGAAAAGGAAATTTTTTTT [CACACA_negctrl_site1090] | 8.49 ± 0.54
14 | TTATTTTATTTTAAAAAAAACAATATAAATTCAAAG [GTGCAC_negctrl_site57] | 7.98 ± 0.44
15 | TATTTATAAATTTACACACACACATGGGAACATAAA [CACACA_site5111] | 9.51 ± 0.18
16 | ATAAAAATTGATTATACACACGCGCACCCACAACAA [CACACA_site3536] | 9.52 ± 0.28
17 | ATGTCAAATTTTTGTGCACACATATATAGTTATTAT [CACACA_site2242] | 9.37 ± 0.42
18 | TATATATATCAGCAATGTACACAATGCATATTATAT [XGTACX_site4836] | 8.79 ± 0.36
19 | TAAGGATAAATAAAATGAAATGAAATAAATAAATGA [XGTACX_negctrl_site539] | 8.63 ± 0.5
20 | TTTGTTTTATGTGGTTGTACACAAATACAATTTAAA [XGTACX_site5156] | 8.38 ± 0.43
21 | TTATAATAAATATTTATTATATATAATATATATTAC [CACACA_negctrl_site1802] | 8.49 ± 0.47
22 | TATATTATATATTTATGTACGTATTTGTAAAAAGAT [XGTACX_site3444] | 8.55 ± 0.32

Row | Sequence | gcPBM binding intensity (ln)
23 | TTTTTTATTAAATATATATAATAATAATAATTTGTA [CACACA_negctrl_site1719] | 8.03 ± 0.33
24 | GTTTCCTTAATATTCACACACATATCTATAATATAT [CACACA_site6959] | 9.23 ± 0.4
25 | ATAATAATTATATCAGTGCGCATATATATTTATTTA | 8.93 ± 0.4
26 | TCATAGCACAAAAAATGTACTTATTATTTAATATTT [XGTACX_site5687] | 8.47 ± 0.43
27 | ATGTGATAATTTAATAGTACATAACAGTTTAACAAT [XGTACX_site5854] | 8.99 ± 0.51
28 | CAAACAAATTGTGAAACACACATATTTATATTTATA [CACACA_site7030] | 8.66 ± 0.44
29 | TTATAAAATAAACTTACACACATGAAATATTATAGT [CACACA_site7000] | 8.91 ± 0.38
30 | TTTATATGCAATTAAGTGCATAAGAAAAAAAAAGGA [GTGCAC_site9966] | 8.6 ± 0.42
31 | TATCAGTATACAACAACACACATAATGTTTGTCATC [CACACA_site2980] | 9.06 ± 0.42
32 | CACTTAAAAAAAATACGTACACATATATATATATAT [XGTACX_site2054] | 9.58 ± 0.28
33 | CAAAAATAAATATAAACACACAATAAATAAATAAAT [CACACA_site891] | 9.12 ± 0.46
34 | TGAATTGTAATTTATAATATACGTGGTTTCTACTTA [CACACA_negctrl_site559] | 8.66 ± 0.44
35 | ATTTAATAACGGCATGCATGTCCTTATATAAATTTA [TGCATGCA_site1012] | 8.77 ± 0.37
36 | TATTATATATTATATAGTACATATTTATGTAAGAGG [XGTACX_site3099] | 8.85 ± 0.54
37 | CCTTACCAAATAATATGTACACATTTAATGTTATAT [XGTACX_site7840] | 8.84 ± 0.35
38 | CAAAATTAATAAGTCACACACACATATATAATATAT [CACACA_site798] | 9.57 ± 0.33
39 | TATAAAAATATATGCACACAAATAAAAAATTATATA [CACACA_site3629] | 8.96 ± 0.47
40 | TATATTTATACAATATGTACATATTATATATATATA [XGTACX_site3098] | 8.78 ± 0.33
41 | ATGGTATCTTTTAGAAGTACATCATGATAATAATTT [XGTACX_site5544] | 8.54 ± 0.42
42 | GATCATAATATTTAAAAGAATATATATAAAAAGGAA [XGTACX_negctrl_site310] | 8.6 ± 0.45
43 | GTATTAATTTATATATGTACATATGTGATATATATA [XGTACX_site5825] | 8.86 ± 0.28
44 | TGGAATAAAAAAAGGAGTACAATTAATTATTCTTAA [XGTACX_site8299] | 8.48 ± 0.45
